# From the supplement of paper PMC11417369
# The other results are listed elsewhere or left out.
# Test system: PfHDP1 homeodomain (GST-tagged)
# Assay: gcPBM binding intensity (ln(normalized median fluorescence intensity)); higher = stronger DNA binding
# Outline: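 Probes on an Agilent 4 × 180k array were primer-extended, double-stranded and 36 bp long, taken from intergenic genomic regions, with negative controls added. GST-tagged P. falciparum DNA-binding domains from E. coli, about 25 μg on average, were applied to the array for 1 h in 1× PBS containing 1% milk, 0.2 mg/ml BSA, 0.5% salmon testes DNA and 0.03% Triton X-100. Binding intensity, obtained after Alexa488 anti-GST antibody detection and a 488 nm scan, is the highest Masliner-normalised natural-log median intensity across replicate spots of either probe orientation.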
row,Sequence,gcPBM binding intensity (ln)
1,TATAAATTTAAAATGACACACACTAATATTATTTAA [CACACA_site8334],6.79
2,GGGTCAAGTAAGCTGTTCCTCTTTTTCTTTCTCACT [GTGCAC_negctrl_site473],6.6
3,TGTCTTTAAATTTCTCAACACACAGTTATAAAAAAT [CACACA_site8930],6.65
4,ATACGATTGAAACATTGTACATGAATATAAAAAAAT [XGTACX_site5704],6.8
5,TTGTATATATATGGAAAAATATATATATATATATAT [GTGCAC_negctrl_site591],9.43
6,TTTATTTATAGACACACACACAAAAAAAAAAAAAAA [CACACA_site7280],6.25
7,CATTTATATTATAAATGTACAAAGTTCGTTTGTTCC [XGTACX_site1305],6.24
8,TTTTTTTTTTTTTTTATAAAAGATAATTTTTTTTTA [CACACA_negctrl_site133],6.43
9,AAAAAAACATAAAATACACACAACCTTAAGAATGTA [CACACA_site3293],6.53
10,TTATAAAATATATATACATGCACAAAATTATAAGTA [TGCATGCA_site294],8.27
11,AATCAACATTTTTTTTGCTATTTTTTTTTTTAATTA [CACACA_negctrl_site891],6.31
12,ATGAAAAAAAGACATGCATGTAAATATAAATTGCTT [TGCATGCA_site504],6.68
13,CTCATTTTGTTAATGGTGCAAAAAAAAAAAAAAAAA,9.82
14,TATTTAAAACTATACACATGCATTATATAAAGATAT [TGCATGCA_site702],6.45
15,AGTAAGAGGCATTAAGCATGCATATTATTATAAGCA [TGCATGCA_site237],6.29
16,CATTATAAGAGACACACACACATATATAAATATGTA [CACACA_site6621],6.53
17,AAAATTTATTATCTATATAATAATATGAAACAAAAC [GTGCAC_negctrl_site731],6.84
18,TTTCATTTTTGAAGGTGTACTTAAAATTTATGTAAT [XGTACX_site6671],6.29
19,TAAATACATTTATATACACACCTATATATATATATA [CACACA_site5137],9.11
20,TCCAAATGAAAAAATTGTACATATTTTATCATATAT [XGTACX_site6159],6.39
21,TATAATTTAAAATACACACACATATATATAATATAT [CACACA_site2000],6.76
22,ATAAGAAATTTCATACGTACATAAATAAATATATAT [XGTACX_site2932],6.55
23,AAAAAATTTATAAAAGCACACAAAATAAAAAAAAAT [CACACA_site8420],6.86

row,Sequence,gcPBM binding intensity (ln)
1,GTATGATGTGAACATTGTACGAATGAATATATCTAA [XGTACX_site3789],6.18
2,ATATAAGTATACACATGTACATATTTCTTATGTATA [XGTACX_site2854],6.72
3,TATAAAGACACGTACACACACTAAGTATATCCAATA [CACACA_site6855],6.75
4,AAAATGTTAAATATTAAATATGAAACAAAAAAAAAA [GTGCAC_negctrl_site211],6.38
5,TATTGTAAAGTGTCATTATTACGTTATATTATATAT [CACACA_negctrl_site98],6.3
6,TATAATATAAAATATGCACACATTGGAATGGGAGAA [CACACA_site3746],9.33
7,GACAATATTAAAACATGTACATGCATTTTATGAATA [XGTACX_site553],6.47
8,TAAAAAAAAGGAAATACATGCATCTACATATATATA [TGCATGCA_site500],6.7
9,ATATAGGTAATAATAATACACACGGTGAAATATAGA [CACACA_site4040],6.82
10,AAAAAAAAAATATATATATATATATAATATATATAT [TGCATGCA_negctrl_site329],8.26
11,ATATATTTCATTTTTGTACACACAACGTTGGAGGGT [CACACA_site8999],6.94
12,AAAAACTAACTGTATTGTACTCTCTTATAAATTCAC [XGTACX_site8967],5.93
13,CTAGGAAATTATATGGGTACTCATATTCATAAAAAA [XGTACX_site1846],6.19
14,AAATATTTGGAGAAATGTACATATTATAAATATATT [XGTACX_site6885],6.57
15,AAAAAAAAAAAAAAGGTGCAAATAAATTAACCTTAT,9.03
16,AAAAAAAACGCACATACACACACACCCATATATATA [CACACA_site9118],7.99
17,AAATGTTAAAATGACAGTACATATATAAAAAAAAAA [XGTACX_site3936],6.49
18,TTTTATTTTTTCCGACGTACATCCATTATATATAAT [XGTACX_site4469],7.2
19,AAAATTATTTTTATGTGTACTTATTTATTATTTATA [XGTACX_site6665],6.33
20,TTGTATTCCTTTTACAACTACCATGAAGAGAATTTT [CACACA_negctrl_site1286],6.33
21,GTCGCCAAAAGGTGTACACATAATGCATTATCATAA [CACACA_site6112],7.63
22,TAAAAAAAATAGCATACACACATATATACATATATA [CACACA_site658],6.3
23,TGATAACCTAATAATACACACACATGAATATATATA [CACACA_site8226],6.66

row,Sequence,gcPBM binding intensity (ln)
1,ATATTTAGGATTATCTGTACATAATATGTTTAATTA [XGTACX_site3426],6.37
2,ATTAAAAAATTATTCACACAAAATAAAAAAATGAAA [CACACA_site4918],6.52
3,TACACATAATATAATGCATGTGTGATGTATGTTTAA [TGCATGCA_site697],6.56
4,TTTTCTTTTTTTTATTGTACTTATAAAAATAAATAA [XGTACX_site3498],6.35
5,GCATATATCAAATATCGTACATTTTTTAAATTAAAA [XGTACX_site3994],6.28
6,ATAGGACATGTATCCAGTACATATTTAAAAAAAATA [XGTACX_site88],6.24
7,ATAAAATCAAAATATACACACAAGGGGGAAAATCAA [CACACA_site2809],6.79
8,TTTGTAAGTCTTTGTTGTACTCAATAGAATGAAGAA [XGTACX_site8930],6.46
9,AATTATTTACCCTATACACACAAAACCCACTAAAAA [CACACA_site4801],7.25
10,AAGAACAGAACGTACACACACATATATATATATATA [CACACA_site3457],9.32
11,AAAAAAAGAATGTGAACACACACATTGAATATAATT [CACACA_site8341],6.35
12,AATCATATGAAAAATACATGCGCATGGATACCTTTA [TGCATGCA_site224],8.09
13,TATAAATAAATACATACACACACATACATATATATA [CACACA_site9024],6.93
14,TACTTATGTGCATACCTACACACTTACATATATATA [CACACA_site2975],9.55
15,GATGATGTTTATTTGTGTACATATTAATACTTAATA [XGTACX_site1902],6.67
16,AAAAAAAAAAAGAAAGCACACAATACATATGTATAA [CACACA_site1137],6.5
17,TAAATTTTTAAATACACACATACACCCATACAGACA [CACACA_site548],7.18
18,ATATATATCAGACACACACACATGTTTTAAAACTAT [CACACA_site77],7.33
19,ACATATATATATATATATATATATATATAATATTTA [CACACA_negctrl_site633],7.22
20,ATTATGCTACAAGGAGAACACACAATTGCCACTTTT [CACACA_site8673],7.29
21,TTTTTTTTGTGGTGTCGTACATATGTTTGTTTTAAG [XGTACX_site1759],6.95
22,GGTGATAATAAGCATACACACACACCCAAAAAAAAA [CACACA_site8137],6.65
23,CCACGAGAATATATAGTGCATAATAATTTTTTTTTG,8.82

row,Sequence,gcPBM binding intensity (ln)
1,ATATATATATTATTTCGTACATAATTATTTGCCTTA [XGTACX_site350],8.39
2,TTTTTTTTATTTTAATGTACATTTTTTATTTGTTAT [XGTACX_site7189],6.37
3,TGATACTTTTTTTGTAGTACTCCTAAAATTATAAAA [XGTACX_site4340],6.56
4,TAATAAAATATGTACGTGCACATAATTATACTAAAA,10.5
5,AAAAAAAAAAAAGAAACACACATATTTATATTTATA [CACACA_site6213],6.12
6,AAAAAAAAAAAAAATTGTACAAAAAAAATAAATAAA [XGTACX_site6816],6.35
7,TTATTTTAATAACCTACACACATTTTGTATATTTTA [CACACA_site4000],6.27
8,TTATAAATATTCTTGGGTACTTAAGATGATATGTAA [XGTACX_site5496],6.2
9,AAATGATGGAAAAAATAAATTTTTGTACAAAAATTA [CACACA_negctrl_site814],6.44
10,TATATATATATATATATAATACGAATTTGTAGTACA [TGCATGCA_negctrl_site224],9.29
11,ATGTTTTTAAAAAATTGTACATAATATTTTTTATAA [XGTACX_site7692],6.38
12,AAAATAATGTATATATGTACATATAAATATATATAT [XGTACX_site8081],7.96
13,TTGTATATTTTATGTACACACAATAAGTTAATATAA [CACACA_site4655],6.72
14,TTTTTCTATAAAAAAAAAAAAAAAAAATATATATAT [TGCATGCA_negctrl_site535],8.02
15,ATAAAAGGAAGAAAATGTACATATAATTATATGCAT [XGTACX_site8421],6.71
16,TATTATTGCATATTTACACACGTACTAATTTAAACA [CACACA_site970],7.87
17,TGTATACTATTAAATTGTACACATAAGAAATATTAT [XGTACX_site5839],6.58
18,TTTTACAAATATAATGGGTGAGCTATCAAAATAAAT [GTGCAC_negctrl_site91],6.63
19,TTTAAAAAGATATATACACACATATAAATAAATATA [CACACA_site6436],6.47
20,ACACATACACATTAGGTGCATATATTTCAATATTAC [GTGCAC_site9423],9.83
